Reference: the RNAGym collection of RNA variant scans (doi:10.7554/elife.90254)
The source gives no read counts; variants with many changes may rest on few reads.

B1: LINE1-mini (parent)
chain: GGCAGAGCUCAACACAGCGUGGCAAAGUGGCUGUGGCUAGACUGCC

Variants of: B1
Assay: self-cleavage, relative activity (ratio to wild type); higher = more cleavage; in vitro, sequencing; the parent is a self-cleaving ribozyme

**Q.** With GGCAGAGCUCAGCAAAGCGUGGCAAAGUGGCUGUGUCUACACUGCC as the variant, how does the self-cleavage read?
**A.** 0.01

**Q.** For GGCAGAGCUCAGCACAUAGUGGCAAAGUGGCUGGGGCUACACUGCA, which self-cleavage is on record?
**A.** 0.08

**Q.** Which self-cleavage does the source give for GGCAGAGCUCAGCACAGAGCGGCAAAGAGGCUGUGGCUAGCCUGCC here?
**A.** 0.01

**Q.** Which self-cleavage does the source give for GGCAGAGCUCAGCACAGAGUGGCAAACUGGCUGGGGCUAGACUGCC here?
**A.** 0.01

**Q.** For GGCAGAGCUCAGCACAGCGUGGCAAAAUGGCUGUGGCUAAAUUGCC, which self-cleavage is on record?
**A.** 0.01

**Q.** With GGCAGAGCUCAGCACAGCGUCGCAAAGUGGCUGUGGCUAAACUGCC as the variant, how does the self-cleavage read?
**A.** 0.02

**Q.** With GGCAGAGCUCAGCACAGCCUGGCAAAGUGGCAGUGGGUAGACUGCC as the variant, how does the self-cleavage read?
**A.** 0.02

**Q.** For GGCAGAGCUCAGCACAACGUGUCAAAGCAGCUGUGGCUAGACUGCU, which self-cleavage is on record?
**A.** 0.06

**Q.** With GGCAGAGCUCAGCACAGCAUGGCAAAUUGGCUGUGGCUAGACUGCC as the variant, how does the self-cleavage read?
**A.** 0

**Q.** With GGCAGAGCUCAGCACAGCGUGGCAAAGUGGCUCUGGCUAGACUACC as the variant, how does the self-cleavage read?
**A.** 0.02

**Q.** Which self-cleavage does the source give for GGCAGAGCUCAGCACAGCGUGGCAAAGUGGUUGUAGCUAGACUGCC here?
**A.** 0.01

**Q.** With GGCAGAGCUCAGCACACCGCGGCAAAGUUGCUGUGGCUAGACUUCA as the variant, how does the self-cleavage read?
**A.** 0.38

**Q.** For GGCAGAGCUCAGCACAGCGGGUCAAAGUGGCUGUGGCUAGACUGCC, which self-cleavage is on record?
**A.** 0.03

**Q.** For GGCAGAGCUCAGCACACCGUGGCAGAGUGGCUGUGGCUAAACUGCC, which self-cleavage is on record?
**A.** 0.01

**Q.** With GGCAGAGCUCAGCACAGCAUGGUAAAGUGGCUGUGGCUAGACUGCC as the variant, how does the self-cleavage read?
**A.** 0.01

**Q.** For GGCAGAGCUCAGCACAGCGUGGUAAAGUGGGCGUGGCUCGACUGCU, which self-cleavage is on record?
**A.** 0.01

**Q.** For GGCAGAGCUCAGCACAGCGUGGUAAAGUGGUUGUGUCAAGACUGCC, which self-cleavage is on record?
**A.** 0.06

**Q.** For GGCAGAGCUCAGCACAACGUGGCAUAGUGGCUGUUGUUAGACUGCC, which self-cleavage is on record?
**A.** 0.08

**Q.** Which self-cleavage does the source give for GGCAGAGCUCAGCACAGCGUAGCAAAGGGGCUGUGGCUAGACUGCC here?
**A.** 0.02

**Q.** Which self-cleavage does the source give for GGCAGAGCUCAGCACACCGUGGAAAAGUGGCUGUGGCUAGACUGCC here?
**A.** 0.01

**Q.** For GGCAGAGCUCAGCACAGCGUGGCAAAGUGGAUGUGGCAAGACUGCC, which self-cleavage is on record?
**A.** 0.03

**Q.** For GGCAGAGCUCAGCACAGCGCGGCAAAGUUGCUGUGGCUAGACUGAC, which self-cleavage is on record?
**A.** 0.01

**Q.** With GGCAGAGCUCAGCACAGCGUGGGAAAGUGGCUGCGGCUAUACUGCC as the variant, how does the self-cleavage read?
**A.** 0.01

**Q.** Which self-cleavage does the source give for GGCAGAGCUCAGCACAGGGUGGCAAAGUGGCUGUGGCUACACUGCC here?
**A.** 0.09

**Q.** Which self-cleavage does the source give for GGCAGAGCUCAGCACAGCGUAGCAAAGUGGCUGUGGAUAGACUCCC here?
**A.** 0.08

**Q.** For GGCAGAGCUCAGCACAGCGUGGCAAAGUGGCUGUAGUUAGACUGCC, which self-cleavage is on record?
**A.** 0.01

**Q.** With GGCAGAGCUCAGCACAGCGCGCAAAAGUGGCUGUGGCUAGACUGCC as the variant, how does the self-cleavage read?
**A.** 0.02

**Q.** Which self-cleavage does the source give for GGCAGAGCUCAGCACAGAGUGGCAAAGUGGCCGUGGCUAGGCUGAC here?
**A.** 0.05

**Q.** Which self-cleavage does the source give for GGCAGAGCUCAGCACACCGUGGCAAAGUGGCUGUGUCUAGACUGCC here?
**A.** 0.02

**Q.** Which self-cleavage does the source give for GGCAGAGCUCAGCACAGCGUAGCAAACUGGCUGUGGCUAUAUUGCC here?
**A.** 0.03

**Q.** With GGCAGAGCUCAGCACAGCGUGGCAAACUGGCUGUGGCUACACUGCC as the variant, how does the self-cleavage read?
**A.** 0.02

**Q.** With GGCAGAGCUCAGCACACCGUGGCAAAGUGGCUGUGGCUAGACUUCC as the variant, how does the self-cleavage read?
**A.** 0.01

**Q.** With GGCAGAGCUCAGCACAGCGUGGCAAAGUUGCUGUGGGUAGACUGCC as the variant, how does the self-cleavage read?
**A.** 0.02

**Q.** Which self-cleavage does the source give for GGCAGAGCUCAGCACAGGGUGGCAAAGUGACUGUGGCUAGACUGGC here?
**A.** 0.06

**Q.** With GGCAGAGCUCAGCACAGAAUGGCAAAGUGGCUGUGUCUAGACUGGC as the variant, how does the self-cleavage read?
**A.** 0.01

**Q.** With GGCAGAGCUCAGCACAGCGUGGCAAAGUGUAUGUGGCUAGACUGCC as the variant, how does the self-cleavage read?
**A.** 0.05

**Q.** Which self-cleavage does the source give for GGCAGAGCUCAGCACAGGGUGACAAAGUGGCUGUGGCUAGACUGCC here?
**A.** 0.02

**Q.** For GGCAGAGCUCAGCACAGCGUGGCAAAGUGGCUGUAUCUAGACUGCC, which self-cleavage is on record?
**A.** 0.1

**Q.** With GGCAGAGCUCAGCACAGCGUGGAAAAGUGGCCGUGGCUCGACUGUU as the variant, how does the self-cleavage read?
**A.** 0.04

**Q.** Which self-cleavage does the source give for GGCAGAGCUCAGCACAGCACGACACAGCGGCUGUGGCUAGACUGCC here?
**A.** 0.01

**Q.** Which self-cleavage does the source give for GGCAGAGCUCAGCACAGCGUGGCAAAGUGGGAGUGGCUAGACUGCA here?
**A.** 0.02

**Q.** With GGCAGAGCUCAGCACAGCGUGGCAAAGUUGCUCUGGUUAGGAUGCC as the variant, how does the self-cleavage read?
**A.** 0.02

**Q.** Which self-cleavage does the source give for GGCAGAGCUCAGCACAGCGUGGCAAAAUGGCUGUGGCUAGACUCCC here?
**A.** 0.03

**Q.** Which self-cleavage does the source give for GGCAGAGCUCAGCACAGCGUGGCAAAGUGGAUGUGUCUAGACUGCC here?
**A.** 0.02

**Q.** Which self-cleavage does the source give for GGCAGAGCUCAGCACAGCGUGGCAAAGUGGCUGUGGAUAUACUUCC here?
**A.** 0.14

**Q.** Which self-cleavage does the source give for GGCAGAGCUCAGCACAGCGUGGCAAACUGGCUGUGGCGAGCCUGCC here?
**A.** 0

**Q.** Which self-cleavage does the source give for GGCAGAGCUCAGCACAGCGUUACAAAGUGGCUGUGGCUAGACUGCC here?
**A.** 0.02

**Q.** Which self-cleavage does the source give for GGCAGAGCUCAGCACAGAUUGGCAAAGUGGCUGUGGCUAGACUGCC here?
**A.** 0.01

**Q.** With GGCAGAGCUCAGCACAGCGUCGUAAAGUGGCUGUGGCUAGACUGCC as the variant, how does the self-cleavage read?
**A.** 0

**Q.** For GGCAGAGCUCAGCAGAGCGUGGCAAAGUGGCUUUGGCUAGACUGCC, which self-cleavage is on record?
**A.** 0.02

**Q.** Which self-cleavage does the source give for GGCAGAGCUCAGCACAGCCUGGCAAAAUGGCUGUUGCUAGACUGCC here?
**A.** 0.01

**Q.** With GGCAGAGCUCAGCACAGCGUGGCAAAGUGGCUGUGACAAGACUGCC as the variant, how does the self-cleavage read?
**A.** 0.07

**Q.** Which self-cleavage does the source give for GGCAGAGCUCAGCACAGCGUGGCAAAGUGGAUGUGGCUACACGGCC here?
**A.** 0.12

**Q.** For GGCAGAGCUCAGCACAGCGUGGCAAAUUGGCUGUGGCUAGAGUGCC, which self-cleavage is on record?
**A.** 0

**Q.** With GGCAGAGCUCAGCACAGCGGGGCAAAGUGGCUGUGGCUAGUCUGCC as the variant, how does the self-cleavage read?
**A.** 0

**Q.** With GGCAGAGCUCAGCACAGCGUGGCAAAGUGGAUGUGGCUAGACUACC as the variant, how does the self-cleavage read?
**A.** 0.01
